T1: UNK ZnF1-6 (called full-length) (human, UniProt Q9C0B0 30-357)
T1 sequence: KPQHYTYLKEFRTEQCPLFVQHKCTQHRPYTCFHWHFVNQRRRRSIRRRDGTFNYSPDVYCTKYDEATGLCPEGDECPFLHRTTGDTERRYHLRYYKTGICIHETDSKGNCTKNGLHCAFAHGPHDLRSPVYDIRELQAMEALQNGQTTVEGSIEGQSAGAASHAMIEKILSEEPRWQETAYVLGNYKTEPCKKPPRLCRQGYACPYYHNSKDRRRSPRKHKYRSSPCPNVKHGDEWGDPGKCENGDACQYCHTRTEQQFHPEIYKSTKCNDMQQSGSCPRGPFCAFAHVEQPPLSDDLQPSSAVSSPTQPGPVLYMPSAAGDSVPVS

B1: chr8:48920054:48920155:-|CDS|ENSG00000019549|unk|total|mutant (ssRNA)
RNA: GGGAGUUCUACAGUCCGACGAUCACCUAUUCAACUUUUUCUGGGCUGGCCAAACAUAAGCAGCUGCACUGCGAUGCCCAGUCCCGAAAAUCUUUCAGCUGUAAAUACUGUGACAAGGAAUAUGUGAGCCUGGGCGCCCUGAAGCAACAGAGGAUUGAGCAUCA
B2: ENSG00000130764:stop:overlap|stop_codon|ENSG00000130764|stop_codon|NA|stop_codon (ssRNA)
RNA: GGGAGUUCUACAGUCCGACGAUCCAGGGUACAAAGAAAGCAUUCUCUUUCCAAAGGAGACGUUGUGGAACCAGUCUGUCAUCUAGAUGGCCCUGACGUGAGGGAAGUGGAAGGUGUUAGGAGCGGAGAUACCUUCACUUGCUGCAACAGAGGAUUGAGCAUCA
B3: chr5:178185721:178187299:-|CDS|ENSG00000244234|control|control|control (ssRNA)
RNA: GGGAGUUCUACAGUCCGACGAUCAGCAUAGCAUUUAGAUUACGCUUGGCUUCUUUUGAUAGUAGUGGAAAACUAGUAUGUAGUAGAACAACUGGCUAUCAAAUACUUAUACUUAAAAAGGAUCAGGAACAAGUGGUGAUGAACCAACAGAGGAUUGAGCAUCA
B4: chr19:14119889:14120036:-|3pUTR|ENSG00000105011|msi1|FALSE|unique (ssRNA)
RNA: GGGAGUUCUACAGUCCGACGAUCAGCAGACCCACUCCAGCUUUCUGGUGUCACAGGCGGGAAUGUUAGUUAGUAGGUAGACUUAGAUCCCAUUUCUGUCCUGCUCCCAGGAAGAUUCUUAGGUCCUCUUCAAUCCAGCAGCCCCAACAGAGGAUUGAGCAUCA
B5: chr19:9526975:9527076:-|3pUTR|ENSG00000130818|unk|FALSE|unique (ssRNA)
RNA: GGGAGUUCUACAGUCCGACGAUCCCUCUCAGACCUUCCAUCAUUACUAUAUUUCACUUUUAUGCCUAUAAACACACACAAAUUAGCAUAUGUAAUCUAAUACAUUGUAGCUAUUUUUCAGAAGUUAUCAGAUCAAUUAAGUAUCAACAGAGGAUUGAGCAUCA
B6: chr15:39595431:39595532:+|3pUTR|ENSG00000137801|msi1_unk|FALSE|overlapping (ssRNA)
RNA: GGGAGUUCUACAGUCCGACGAUCCCCCAGGAUCACUUCUCCUUGGCUUCCUUCUUUUCUGUGCUUGCAUCAGUGUGGACUCCUAGAACGUGCGACCUGCCUCAAGAAAAUGCAGUUUUCAAAAACAGACUCAGCAUUCAGCCUCAACAGAGGAUUGAGCAUCA
B7: chr14:53043751:53043854:-|3pUTR|ENSG00000100523|unk|FALSE|unique (ssRNA)
RNA: GGGAGUUCUACAGUCCGACGAUCACUUAGAUUAAAUCUUGCUUUAUUUUUACUUUAAAAUUAGUCUUGCUAAGGCCUUAUGUUAGUUCAUACUUUCUUUUCAACAGUAAUCUUGUUUAUAAUCCAGUGUUUCUGUGUUUUAGGCAACAGAGGAUUGAGCAUCA
B8: chr17:61865808:61865921:-|3pUTR|ENSG00000108506|unk|total|mutant (ssRNA)
RNA: GGGAGUUCUACAGUCCGACGAUCUUCUAUGAGAAUGAGUUUGCCGCUGUUUCAAAUCAUGAAGUGCACCGUAUCACAUGUGACCGAAUAUUUAUAACUUUUUAUCCGAUGCUUAAUGUUCAAUUAAGUAAUUUUGAUGUGAAACAACAGAGGAUUGAGCAUCA
B9: chrX:53532849:53532950:-|3pUTR|ENSG00000086758|unk|total|mutant (ssRNA)
RNA: GGGAGUUCUACAGUCCGACGAUCGUGCUCCUCAGAUUCUGUGUUCAGAAGGAUUUGCUGCAUUGAGACUUGAAACCUUUGGACCGGGGAAAAAAUUAUAUAUAUAUAUAUUUUUUUGUUCUGUUUGCAUUUCUUAAUUUGUGCCAACAGAGGAUUGAGCAUCA
B10: chr6:57184343:57184440:+|3pUTR|ENSG00000112208|msi1_unk|FALSE|overlapping (ssRNA)
RNA: GGGAGUUCUACAGUCCGACGAUCUCUUCAGUUUUGUGAAUAACAAAACUAGCAAUAUUUUAAUUAUCUAUCUAGAGAUUUUUUAGAUUGAAUUCUUGUCUUGUACUAGGAUCUAGCAUAUUUCACUAUUCUGUGGAUGAAUACCAACAGAGGAUUGAGCAUCA
B11: chr12:10908389:10909298:-|CDS|ENSG00000212128|control|control|control (ssRNA)
RNA: GGGAGUUCUACAGUCCGACGAUCCAUGCUUUGUGAGACGAUUGGAGUCUUCUCUCCUUCAAGCCACUCCUUUCUUCUGAUUCUAGGAAACGCUAAGUUAAGACAGGCCUUUCUUUUGGUGGCAGCUAAGGUAUGGGCUAAACGCAACAGAGGAUUGAGCAUCA
B12: chr20:45898604:45898705:+|3pUTR|ENSG00000064601|unk|total|mutant (ssRNA)
RNA: GGGAGUUCUACAGUCCGACGAUCAGAGCCCUGUACAUCCCAGACUGGGCCCAGGGUCUCCCACCGACAGCCUGGGGGCAAGUCCGCACUUUAUUCCCGCAGCAGUUCCUGAAUGGGGUGGCCUGGCCCCUUCUCUGCUUAAAGCAACAGAGGAUUGAGCAUCA
B13: ENSG00000136451:be:win_651|CDS|ENSG00000136451|bound_else_gene|NA|bound_elsewhere_windowed (ssRNA)
RNA: GGGAGUUCUACAGUCCGACGAUCGACUUACCAUGUGAGGUCUCAUGAAGGAGGCAUCACCAAACCCUAUACUUGCAGUGUUUGUGGGAAAGGCUUCUCAAGGCCUGACCACUUAAGCUGUCAUGUAAAACAUGUCCAUUCAACCAACAGAGGAUUGAGCAUCA
B14: chr22:21921976:21922077:-|3pUTR|ENSG00000100034|msi1|FALSE|unique (ssRNA)
RNA: GGGAGUUCUACAGUCCGACGAUCGACUGCAGUGGGCUCGGAUAGGCCCAUUGAGGUUUUUAGAAAAGCAGGAUUUGUUUUGUUAGGGAGGCAUGAUUUUGGUGAGAUCUUUCUGGAAGAGUUUUCCGCCUCUUUGUGAUGCUGCAACAGAGGAUUGAGCAUCA

This is one part of the list.

This assay addresses T1, UNK ZnF1-6 (called full-length). The assay can be described thus: nsRBNS (natural sequence RNA bind-n-seq); RBNS binding buffer (assumed for nsRBNS): 25 mM Tris pH 7.5, 150 mM KCl, 3 mM MgCl2, 0.01% Triton X-100, 500 ug/ml BSA, 20 U/ml SUPERase-In, 4 C; UNK is unkempt and MSI1 is Musashi-1; names of the RNAs are library labels; protein concentration not given here; high values mean tight binding.
The molecule B1 returned a binding signal of 0.712 enrichment R. In the case of B2 it was 0.633 enrichment R. On to B3, for which the binding signal amounted to 1.25 enrichment R. The molecule B4 returned a binding signal of 3.78 enrichment R.

Regarding B5, the binding signal stood at 4.62 enrichment R. With B6, the binding signal is 0.66 enrichment R. Molecule B7 had a binding signal of 15 enrichment R. In turn, B8 showed a binding signal of 0.384 enrichment R. With B9 the figure was 0.637 enrichment R; with B10, 6.31 enrichment R; with B11, 0.609 enrichment R. The molecule B12 registered a binding signal of 1.01 enrichment R. B13 came in with a binding signal of 0.353 enrichment R.

In turn, B14 displayed a binding signal of 0.813 enrichment R.
